# Measurements: the supplement of paper PMC8728848
# Some of the results follow.
# B1: Clec49 (Caenorhabditis elegans) (protein)
# chain: MTRLTLLLFGLLGAATAQTCNTGGIYNEQFNRCYQYFTAPAQFSFAEQQCNLLGGHLASVQNGQENALLQSNAANSFKRSNYSDYWIGATDLETSGTWKWTDPSVTFDYSNWQLGEPQSGSDCAIQDKGDGTWSAIGCTSYRPYVCVTPVIMTATCPPITTPIPTTCPTPAPCPIKQCVPSCDQGWTYFSPTDFCYRVYHGEKFNDAEASCVLLGGHLASIHSLTENTFVNNIASCGIKEGKYEHLAWIGMRKVGQDWVWTDGTPSDYFNWAPKQPDNPKKELCVQTAPDLSHDKWYENWNNLECNEVMRAYICKKASIHN
# What was measured:
# Experiment in all cases: glycan array binding signal (z-score within array); higher = stronger binding
# Conditions in all cases: glycan notation: IUPAC condensed, linker removed
# [1] = target: GlcNAc(a1-4)Gal(b1-3)GlcNAc
# How it was run: (§1)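 Arrays were curated from the Consortium for Functional Glycomics database, 3228 in total, and kept only where the protein sequence was available. Binding is expressed as a within-array Z-score. This score was averaged across arrays of the same protein sequence at different concentrations or buffers and across linkers, and negative values can be read as non-binding.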
# [2] = target: GlcNAc(a1-4)Gal(b1-4)GalNAc
# How it was run: as §1
# [3] = target: GlcNAc(a1-4)Gal(b1-4)GlcNAc
# How it was run: as §1
# [4] = target: GlcNAc(a1-4)Gal(b1-4)GlcNAc(b1-3)Gal(b1-4)Glc
# How it was run: as §1
# [5] = target: GlcNAc(a1-4)Gal(b1-4)GlcNAc(b1-3)Gal(b1-4)GlcNAc
# How it was run: as §1
# [6] = target: GlcNAc(a1-4)Gal(b1-4)GlcNAc(b1-3)Gal(b1-4)GlcNAc(b1-3)Gal(b1-4)GlcNAc
# How it was run: as §1
# [7] = target: GlcNAc(a1-4)Gal(b1-4)GlcNAc(b1-3)Gal(b1-4)[Fuc(a1-3)]GlcNAc(b1-3)Gal(b1-4)[Fuc(a1-3)]GlcNAc
# How it was run: as §1
# [8] = target: GlcNAc(a1-6)Gal(b1-4)GlcNAc
# How it was run: as §1
# [9] = target: GlcNAc(b1-2)Gal(b1-3)GalNAc
# How it was run: as §1
# [10] = target: GlcNAc(b1-2)Man(a1-3)[GlcNAc(b1-2)Man(a1-6)]Man(b1-4)GlcNAc(b1-4)GlcNAc
# How it was run: as §1
# [11] = target: GlcNAc(b1-2)Man(a1-3)[GlcNAc(b1-2)Man(a1-6)]Man(b1-4)GlcNAc(b1-4)[Fuc(a1-6)]GlcNAc
# How it was run: as §1
# [12] = target: GlcNAc(b1-2)Man(a1-3)[GlcNAc(b1-4)][GlcNAc(b1-2)Man(a1-6)]Man(b1-4)GlcNAc(b1-4)GlcNAc
# How it was run: as §1
# [13] = target: GlcNAc(b1-2)Man(a1-3)[GlcNAc(b1-4)][GlcNAc(b1-2)Man(a1-6)]Man(b1-4)GlcNAc(b1-4)[Fuc(a1-6)]GlcNAc
# How it was run: as §1
# [14] = target: GlcNAc(b1-2)[GlcNAc(b1-4)]Man(a1-3)[GlcNAc(b1-2)Man(a1-6)]Man(b1-4)GlcNAc(b1-4)GlcNAc
# How it was run: as §1
# [15] = target: GlcNAc(b1-2)[GlcNAc(b1-4)]Man(a1-3)[GlcNAc(b1-4)][GlcNAc(b1-2)Man(a1-6)]Man(b1-4)GlcNAc(b1-4)GlcNAc
# How it was run: as §1
# [16] = target: GlcNAc(b1-2)[GlcNAc(b1-4)]Man(a1-3)[GlcNAc(b1-4)][GlcNAc(b1-2)[GlcNAc(b1-6)]Man(a1-6)]Man(b1-4)GlcNAc(b1-4)GlcNAc
# How it was run: as §1
# [17] = target: GlcNAc(b1-2)[GlcNAc(b1-4)]Man(a1-3)[GlcNAc(b1-4)][GlcNAc(b1-2)[GlcNAc(b1-6)]Man(a1-6)]Man(b1-4)GlcNAc(b1-4)[Fuc(a1-6)]GlcNAc
# How it was run: as §1
# [18] = target: GlcNAc(b1-2)[GlcNAc(b1-6)]Man(a1-6)[GlcNAc(b1-2)Man(a1-3)]Man(b1-4)GlcNAc(b1-4)GlcNAc
# How it was run: as §1
# [19] = target: GlcNAc(b1-2)[GlcNAc(b1-6)]Man(a1-6)[GlcNAc(b1-2)Man(a1-3)]Man(b1-4)GlcNAc(b1-4)[Fuc(a1-6)]GlcNAc
# How it was run: as §1
# [20] = target: GlcNAc(b1-2)[GlcNAc(b1-6)]Man(a1-6)[GlcNAc(b1-4)][GlcNAc(b1-2)Man(a1-3)]Man(b1-4)GlcNAc(b1-4)GlcNAc
# How it was run: as §1
# [21] = target: GlcNAc(b1-3)Fuc
# How it was run: as §1
# [22] = target: GlcNAc(b1-3)Gal
# How it was run: as §1
# [23] = target: GlcNAc(b1-3)Gal(b1-3)GalNAc
# How it was run: as §1
# [24] = target: GlcNAc(b1-3)Gal(b1-4)Glc
# How it was run: as §1
# [25] = target: GlcNAc(b1-3)Gal(b1-4)GlcNAc
# How it was run: as §1
# [26] = target: GlcNAc(b1-3)Gal(b1-4)GlcNAc(b1-2)Man(a1-3)[GlcNAc(b1-3)Gal(b1-4)GlcNAc(b1-2)Man(a1-6)]Man(b1-4)GlcNAc(b1-4)GlcNAc
# How it was run: as §1
# [27] = target: GlcNAc(b1-3)Gal(b1-4)GlcNAc(b1-2)Man(a1-3)[GlcNAc(b1-3)Gal(b1-4)GlcNAc(b1-2)Man(a1-6)]Man(b1-4)GlcNAc(b1-4)[Fuc(a1-6)]GlcNAc
# How it was run: as §1
# [28] = target: GlcNAc(b1-3)Gal(b1-4)GlcNAc(b1-2)[GlcNAc(b1-3)Gal(b1-4)GlcNAc(b1-6)]Man(a1-6)[GlcNAc(b1-3)Gal(b1-4)GlcNAc(b1-2)Man(a1-3)]Man(b1-4)GlcNAc(b1-4)GlcNAc
# How it was run: as §1
# [29] = target: GlcNAc(b1-3)Gal(b1-4)GlcNAc(b1-3)Gal(b1-4)GlcNAc
# How it was run: as §1
# [30] = target: GlcNAc(b1-3)Gal(b1-4)GlcNAc(b1-3)Gal(b1-4)GlcNAc(b1-2)Man(a1-3)[GlcNAc(b1-3)Gal(b1-4)GlcNAc(b1-3)Gal(b1-4)GlcNAc(b1-2)Man(a1-6)]Man(b1-4)GlcNAc(b1-4)GlcNAc
# How it was run: as §1
# [31] = target: GlcNAc(b1-3)Gal(b1-4)GlcNAc(b1-3)Gal(b1-4)GlcNAc(b1-2)Man(a1-3)[GlcNAc(b1-3)Gal(b1-4)GlcNAc(b1-3)Gal(b1-4)GlcNAc(b1-2)Man(a1-6)]Man(b1-4)GlcNAc(b1-4)[Fuc(a1-6)]GlcNAc
# How it was run: as §1
# [32] = target: GlcNAc(b1-3)Gal(b1-4)GlcNAc(b1-3)Gal(b1-4)GlcNAc(b1-2)[GlcNAc(b1-3)Gal(b1-4)GlcNAc(b1-3)Gal(b1-4)GlcNAc(b1-6)]Man(a1-6)[GlcNAc(b1-3)Gal(b1-4)GlcNAc(b1-3)Gal(b1-4)GlcNAc(b1-2)Man(a1-3)]Man(b1-4)GlcNAc(b1-4)[Fuc(a1-6)]GlcNAc
# How it was run: as §1
# [33] = target: GlcNAc(b1-3)Gal(b1-4)GlcNAc(b1-3)Gal(b1-4)GlcNAc(b1-3)Gal(b1-4)GlcNAc(b1-2)Man(a1-3)[GlcNAc(b1-3)Gal(b1-4)GlcNAc(b1-3)Gal(b1-4)GlcNAc(b1-3)Gal(b1-4)GlcNAc(b1-2)Man(a1-6)]Man(b1-4)GlcNAc(b1-4)GlcNAc
# How it was run: as §1
# [34] = target: GlcNAc(b1-3)Gal(b1-4)GlcNAc(b1-3)Gal(b1-4)GlcNAc(b1-3)Gal(b1-4)GlcNAc(b1-2)Man(a1-3)[GlcNAc(b1-3)Gal(b1-4)GlcNAc(b1-3)Gal(b1-4)GlcNAc(b1-3)Gal(b1-4)GlcNAc(b1-2)Man(a1-6)]Man(b1-4)GlcNAc(b1-4)[Fuc(a1-6)]GlcNAc
# How it was run: as §1
# [35] = target: GlcNAc(b1-3)Gal(b1-4)GlcNAc(b1-3)Gal(b1-4)GlcNAc(b1-3)Gal(b1-4)GlcNAc(b1-2)[GlcNAc(b1-3)Gal(b1-4)GlcNAc(b1-3)Gal(b1-4)GlcNAc(b1-3)Gal(b1-4)GlcNAc(b1-6)]Man(a1-6)[GlcNAc(b1-3)Gal(b1-4)GlcNAc(b1-3)Gal(b1-4)GlcNAc(b1-3)Gal(b1-4)GlcNAc(b1-2)Man(a1-3)]Man(b1-4)GlcNAc(b1-4)[Fuc(a1-6)]GlcNAc
# How it was run: as §1
# [36] = target: GlcNAc(b1-3)Gal(b1-4)GlcNAc(b1-3)Gal(b1-4)GlcNAc(b1-3)Gal(b1-4)GlcNAc(b1-3)Gal(b1-4)GlcNAc(b1-2)Man(a1-3)[GlcNAc(b1-3)Gal(b1-4)GlcNAc(b1-3)Gal(b1-4)GlcNAc(b1-3)Gal(b1-4)GlcNAc(b1-3)Gal(b1-4)GlcNAc(b1-2)Man(a1-6)]Man(b1-4)GlcNAc(b1-4)GlcNAc
# How it was run: as §1
# [37] = target: GlcNAc(b1-3)Gal(b1-4)GlcNAc(b1-3)Gal(b1-4)GlcNAc(b1-3)Gal(b1-4)GlcNAc(b1-3)Gal(b1-4)GlcNAc(b1-2)Man(a1-3)[GlcNAc(b1-3)Gal(b1-4)GlcNAc(b1-3)Gal(b1-4)GlcNAc(b1-3)Gal(b1-4)GlcNAc(b1-3)Gal(b1-4)GlcNAc(b1-2)Man(a1-6)]Man(b1-4)GlcNAc(b1-4)[Fuc(a1-6)]GlcNAc
# How it was run: as §1
# [38] = target: GlcNAc(b1-3)Gal(b1-4)GlcNAc(b1-3)Gal(b1-4)GlcNAc(b1-3)Gal(b1-4)GlcNAc(b1-3)Gal(b1-4)GlcNAc(b1-2)[GlcNAc(b1-3)Gal(b1-4)GlcNAc(b1-3)Gal(b1-4)GlcNAc(b1-3)Gal(b1-4)GlcNAc(b1-3)Gal(b1-4)GlcNAc(b1-6)]Man(a1-6)[GlcNAc(b1-3)Gal(b1-4)GlcNAc(b1-3)Gal(b1-4)GlcNAc(b1-3)Gal(b1-4)GlcNAc(b1-3)Gal(b1-4)GlcNAc(b1-2)Man(a1-3)]Man(b1-4)GlcNAc(b1-4)[Fuc(a1-6)]GlcNAc
# How it was run: as §1
binder,measurement,setting,value
B1,glycan array binding signal (z-score),[1],-0.232
same,glycan array binding signal (z-score),[2],-0.484
same,glycan array binding signal (z-score),[3],-0.068
same,glycan array binding signal (z-score),[4],-0.427
same,glycan array binding signal (z-score),[5],-0.142
same,glycan array binding signal (z-score),[6],-0.209
same,glycan array binding signal (z-score),[7],-0.003
same,glycan array binding signal (z-score),[8],0.015
same,glycan array binding signal (z-score),[9],-0.168
same,glycan array binding signal (z-score),[10],-0.129
same,glycan array binding signal (z-score),[11],0.606
same,glycan array binding signal (z-score),[12],-0.576
same,glycan array binding signal (z-score),[13],0.223
same,glycan array binding signal (z-score),[14],0.155
same,glycan array binding signal (z-score),[15],-0.628
same,glycan array binding signal (z-score),[16],-0.524
same,glycan array binding signal (z-score),[17],-0.199
same,glycan array binding signal (z-score),[18],-0.538
same,glycan array binding signal (z-score),[19],0.48
same,glycan array binding signal (z-score),[20],-0.535
same,glycan array binding signal (z-score),[21],0.199
same,glycan array binding signal (z-score),[22],-0.154
same,glycan array binding signal (z-score),[23],-0.193
same,glycan array binding signal (z-score),[24],-0.208
same,glycan array binding signal (z-score),[25],-0.356
same,glycan array binding signal (z-score),[26],0.144
same,glycan array binding signal (z-score),[27],0.489
same,glycan array binding signal (z-score),[28],0.43
same,glycan array binding signal (z-score),[29],-0.387
same,glycan array binding signal (z-score),[30],1.3
same,glycan array binding signal (z-score),[31],0.581
same,glycan array binding signal (z-score),[32],0.206
same,glycan array binding signal (z-score),[33],-0.295
same,glycan array binding signal (z-score),[34],-0.119
same,glycan array binding signal (z-score),[35],0.571
same,glycan array binding signal (z-score),[36],-0.429
same,glycan array binding signal (z-score),[37],0.13
same,glycan array binding signal (z-score),[38],0.694
